# Laboratory results from the supplement of paper PMC8728848.
# The other results are listed elsewhere or left out.
# B1: Nictaba (Nicotiana tabacum), Q94EW1 (protein)
# chain: MQGQWIAARDLSITWVDNPQYWTWKTVDPNIEVAELRRVAWLDIYGKIETKNLIRKTSYAVYLVFKLTDNPRELERATASLRFVNEVAEGAGIEGTTVFISKKKKLPGELGRFPHLRSDGWLEIKLGEFFNNLGEDGEVEMRLMEINDKTWKSGIIVKGFDIRPN
# Assays:
# Assay in all cases: glycan array binding signal (z-score within array); higher = stronger binding
# Conditions in all cases: glycan notation: IUPAC condensed, linker removed
# GalNAc4S6S(b1-4)GlcNAc = biological target: GalNAc4S6S(b1-4)GlcNAc
# Summary of the method: (§1)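 Arrays were curated from the Consortium for Functional Glycomics database, 3228 in total, and kept only where the protein sequence was available. Binding is expressed as a within-array Z-score. This score was averaged across arrays of the same protein sequence at different concentrations or buffers and across linkers, and negative values can be read as non-binding.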
# GalNAc6S(b1-4)GlcNAc = biological target: GalNAc6S(b1-4)GlcNAc
# Summary of the method: as §1
# Glc(a1-4)Glc = biological target: Glc(a1-4)Glc
# Summary of the method: as §1
# [1] = biological target: Glc(a1-4)Glc(a1-4)Glc(a1-4)Glc
# Summary of the method: as §1
# Glc(a1-6)Glc(a1-6)Glc = biological target: Glc(a1-6)Glc(a1-6)Glc
# Summary of the method: as §1
# [2] = biological target: Glc(a1-6)Glc(a1-6)Glc(a1-6)Glc
# Summary of the method: as §1
# Glc(b1-4)Glc = biological target: Glc(b1-4)Glc
# Summary of the method: as §1
# Glc(b1-6)Glc = biological target: Glc(b1-6)Glc
# Summary of the method: as §1
# GlcA(b1-3)Gal = biological target: GlcA(b1-3)Gal
# Summary of the method: as §1
# GlcA(b1-3)GlcNAc = biological target: GlcA(b1-3)GlcNAc
# Summary of the method: as §1
# GlcA(b1-6)Gal = biological target: GlcA(b1-6)Gal
# Summary of the method: as §1
# [3] = biological target: GlcA3S(b1-3)Gal(b1-4)GlcNAc(b1-2)Man
# Summary of the method: as §1
# [4] = biological target: GlcA3S(b1-3)Gal(b1-4)GlcNAc(b1-3)Gal(b1-4)Glc
# Summary of the method: as §1
# [5] = biological target: GlcNAc(a1-3)Gal(b1-4)GlcNAc
# Summary of the method: as §1
# [6] = biological target: GlcNAc(a1-4)Gal(b1-3)GlcNAc
# Summary of the method: as §1
# [7] = biological target: GlcNAc(a1-4)Gal(b1-4)GalNAc
# Summary of the method: as §1
# [8] = biological target: GlcNAc(a1-4)Gal(b1-4)GlcNAc
# Summary of the method: as §1
# [9] = biological target: GlcNAc(a1-4)Gal(b1-4)GlcNAc(b1-3)Gal(b1-4)Glc
# Summary of the method: as §1
# [10] = biological target: GlcNAc(a1-4)Gal(b1-4)GlcNAc(b1-3)Gal(b1-4)GlcNAc
# Summary of the method: as §1
# [11] = biological target: GlcNAc(a1-4)Gal(b1-4)GlcNAc(b1-3)Gal(b1-4)GlcNAc(b1-3)Gal(b1-4)GlcNAc
# Summary of the method: as §1
# [12] = biological target: GlcNAc(a1-4)Gal(b1-4)GlcNAc(b1-3)Gal(b1-4)[Fuc(a1-3)]GlcNAc(b1-3)Gal(b1-4)[Fuc(a1-3)]GlcNAc
# Summary of the method: as §1
# [13] = biological target: GlcNAc(a1-6)Gal(b1-4)GlcNAc
# Summary of the method: as §1
# [14] = biological target: GlcNAc(b1-2)Gal(b1-3)GalNAc
# Summary of the method: as §1
# [15] = biological target: GlcNAc(b1-2)Gal(b1-3)GlcNAc
# Summary of the method: as §1
# [16] = biological target: GlcNAc(b1-2)Man(a1-3)[GlcNAc(b1-2)Man(a1-6)]Man(b1-4)GlcNAc(b1-4)GlcNAc
# Summary of the method: as §1
# [17] = biological target: GlcNAc(b1-2)Man(a1-3)[GlcNAc(b1-2)Man(a1-6)]Man(b1-4)GlcNAc(b1-4)[Fuc(a1-6)]GlcNAc
# Summary of the method: as §1
# [18] = biological target: GlcNAc(b1-2)Man(a1-3)[GlcNAc(b1-4)][GlcNAc(b1-2)Man(a1-6)]Man(b1-4)GlcNAc(b1-4)GlcNAc
# Summary of the method: as §1
# [19] = biological target: GlcNAc(b1-2)Man(a1-3)[GlcNAc(b1-4)][GlcNAc(b1-2)Man(a1-6)]Man(b1-4)GlcNAc(b1-4)[Fuc(a1-6)]GlcNAc
# Summary of the method: as §1
# [20] = biological target: GlcNAc(b1-2)[GlcNAc(b1-4)]Man(a1-3)[GlcNAc(b1-2)Man(a1-6)]Man(b1-4)GlcNAc(b1-4)GlcNAc
# Summary of the method: as §1
# [21] = biological target: GlcNAc(b1-2)[GlcNAc(b1-4)]Man(a1-3)[GlcNAc(b1-4)][GlcNAc(b1-2)Man(a1-6)]Man(b1-4)GlcNAc(b1-4)GlcNAc
# Summary of the method: as §1
# [22] = biological target: GlcNAc(b1-2)[GlcNAc(b1-4)]Man(a1-3)[GlcNAc(b1-4)][GlcNAc(b1-2)[GlcNAc(b1-6)]Man(a1-6)]Man(b1-4)GlcNAc(b1-4)GlcNAc
# Summary of the method: as §1
# [23] = biological target: GlcNAc(b1-2)[GlcNAc(b1-4)]Man(a1-3)[GlcNAc(b1-4)][GlcNAc(b1-2)[GlcNAc(b1-6)]Man(a1-6)]Man(b1-4)GlcNAc(b1-4)[Fuc(a1-6)]GlcNAc
# Summary of the method: as §1
# [24] = biological target: GlcNAc(b1-2)[GlcNAc(b1-6)]Man(a1-6)[GlcNAc(b1-2)Man(a1-3)]Man(b1-4)GlcNAc(b1-4)GlcNAc
# Summary of the method: as §1
# [25] = biological target: GlcNAc(b1-2)[GlcNAc(b1-6)]Man(a1-6)[GlcNAc(b1-2)Man(a1-3)]Man(b1-4)GlcNAc(b1-4)[Fuc(a1-6)]GlcNAc
# Summary of the method: as §1
# [26] = biological target: GlcNAc(b1-2)[GlcNAc(b1-6)]Man(a1-6)[GlcNAc(b1-2)Man(a1-3)][GlcNAc(b1-4)]Man(b1-4)GlcNAc(b1-4)GlcNAc
# Summary of the method: as §1
# [27] = biological target: GlcNAc(b1-2)[GlcNAc(b1-6)]Man(a1-6)[GlcNAc(b1-4)][GlcNAc(b1-2)Man(a1-3)]Man(b1-4)GlcNAc(b1-4)GlcNAc
# Summary of the method: as §1
# GlcNAc(b1-3)Fuc = biological target: GlcNAc(b1-3)Fuc
# Summary of the method: as §1
# GlcNAc(b1-3)Gal = biological target: GlcNAc(b1-3)Gal
# Summary of the method: as §1
# [28] = biological target: GlcNAc(b1-3)Gal(b1-3)GalNAc
# Summary of the method: as §1
# GlcNAc(b1-3)Gal(b1-4)Glc = biological target: GlcNAc(b1-3)Gal(b1-4)Glc
# Summary of the method: as §1
# [29] = biological target: GlcNAc(b1-3)Gal(b1-4)GlcNAc
# Summary of the method: as §1
# [30] = biological target: GlcNAc(b1-3)Gal(b1-4)GlcNAc(b1-2)Man(a1-3)[GlcNAc(b1-3)Gal(b1-4)GlcNAc(b1-2)Man(a1-6)]Man(b1-4)GlcNAc(b1-4)GlcNAc
# Summary of the method: as §1
# [31] = biological target: GlcNAc(b1-3)Gal(b1-4)GlcNAc(b1-2)Man(a1-3)[GlcNAc(b1-3)Gal(b1-4)GlcNAc(b1-2)Man(a1-6)]Man(b1-4)GlcNAc(b1-4)[Fuc(a1-6)]GlcNAc
# Summary of the method: as §1
# [32] = biological target: GlcNAc(b1-3)Gal(b1-4)GlcNAc(b1-2)[GlcNAc(b1-3)Gal(b1-4)GlcNAc(b1-6)]Man(a1-6)[GlcNAc(b1-3)Gal(b1-4)GlcNAc(b1-2)Man(a1-3)]Man(b1-4)GlcNAc(b1-4)GlcNAc
# Summary of the method: as §1
# [33] = biological target: GlcNAc(b1-3)Gal(b1-4)GlcNAc(b1-3)Gal(b1-4)GlcNAc
# Summary of the method: as §1
binder,measurement,setting,value
B1,glycan array binding signal (z-score),GalNAc4S6S(b1-4)GlcNAc,-0.387
same,glycan array binding signal (z-score),GalNAc6S(b1-4)GlcNAc,-0.387
same,glycan array binding signal (z-score),Glc(a1-4)Glc,-0.326
same,glycan array binding signal (z-score),[1],-0.316
same,glycan array binding signal (z-score),Glc(a1-6)Glc(a1-6)Glc,-0.295
same,glycan array binding signal (z-score),[2],-0.355
same,glycan array binding signal (z-score),Glc(b1-4)Glc,-0.295
same,glycan array binding signal (z-score),Glc(b1-6)Glc,-0.294
same,glycan array binding signal (z-score),GlcA(b1-3)Gal,-0.31
same,glycan array binding signal (z-score),GlcA(b1-3)GlcNAc,-0.238
same,glycan array binding signal (z-score),GlcA(b1-6)Gal,-0.31
same,glycan array binding signal (z-score),[3],-0.39
same,glycan array binding signal (z-score),[4],-0.387
same,glycan array binding signal (z-score),[5],-0.205
same,glycan array binding signal (z-score),[6],-0.268
same,glycan array binding signal (z-score),[7],-0.298
same,glycan array binding signal (z-score),[8],-0.293
same,glycan array binding signal (z-score),[9],-0.247
same,glycan array binding signal (z-score),[10],-0.26
same,glycan array binding signal (z-score),[11],-0.3
same,glycan array binding signal (z-score),[12],-0.25
same,glycan array binding signal (z-score),[13],-0.332
same,glycan array binding signal (z-score),[14],-0.275
same,glycan array binding signal (z-score),[15],-0.344
same,glycan array binding signal (z-score),[16],2.83
same,glycan array binding signal (z-score),[17],0.805
same,glycan array binding signal (z-score),[18],-0.014
same,glycan array binding signal (z-score),[19],0.03
same,glycan array binding signal (z-score),[20],-0.101
same,glycan array binding signal (z-score),[21],0.103
same,glycan array binding signal (z-score),[22],-0.253
same,glycan array binding signal (z-score),[23],-0.372
same,glycan array binding signal (z-score),[24],1.57
same,glycan array binding signal (z-score),[25],2.27
same,glycan array binding signal (z-score),[26],-0.182
same,glycan array binding signal (z-score),[27],-0.382
same,glycan array binding signal (z-score),GlcNAc(b1-3)Fuc,-0.386
same,glycan array binding signal (z-score),GlcNAc(b1-3)Gal,-0.285
same,glycan array binding signal (z-score),[28],-0.35
same,glycan array binding signal (z-score),GlcNAc(b1-3)Gal(b1-4)Glc,-0.284
same,glycan array binding signal (z-score),[29],-0.307
same,glycan array binding signal (z-score),[30],2.81
same,glycan array binding signal (z-score),[31],3.19
same,glycan array binding signal (z-score),[32],0.107
same,glycan array binding signal (z-score),[33],-0.285
